# Out of some 410,000 compounds screened, about 5,000 (1.2%) were called active. The shares of active, inactive and inconclusive entries below differ from those in the screen. The call rests on the fitted dose curve; in most records, active means well fitted inhibition curve with a large enough effect; inconclusive means small, poorly fitted or top-dose-only effect; inactive means no such curve, though single readings can be large or run the other way. Potencies of inconclusive entries are doubtful fits and often do not repeat.
# Assay: qHTS for Inhibitors of TGF-b; further: nearly all actives have a fitted effect of over 65% in size
# Conditions: HepG2 CAGA-GFP TGF-b/SMAD3 reporter, GFP fluorescence, 18 h, TGF-beta stimulated, 500 pg/mL final; series mostly up to 46.1 µM
# How it was run: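 HEPG2 CAGA-GFP cells (1000/well, DMEM with 1% FBS) were pre-incubated 2 h at 37 degrees C, given compound by pin tool, then stimulated with TGF-beta at 500 pg/mL final for 18 h before per-cell GFP fluorescence imaging.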
# Potency means the concentration at half of the fitted maximal effect; tags describe the fitted curve by direction and shape.
row,SMILES,Potency
1,CN(CC(=O)Nc1ccc(Cl)c(C(F)(F)F)c1)C(=O)Cc1c[nH]c2ccccc12,"inconclusive: 35.5 µM [inhibitor, single point]"
2,Oc1ccccc1CNc1ncc(Br)cc1Br,"inconclusive: 35.5 µM [inhibitor, single point]"
3,CCOC(=O)c1nnn(-c2nonc2N)c1-c1ccc(OCC)cc1,inactive
4,O=C(Cn1cccc1C(=O)c1ccccc1)NCCN1CCOCC1,"inconclusive: 0.447 µM [inhibitor, full curve, poor fit]"
5,COc1ccccc1N1CCN(C(=O)c2ccncc2)CC1,inactive
6,CC1(C)CC2CC(C)(CN2S(=O)(=O)c2ccc(C(=O)Nc3ccc(Cl)c(S(=O)(=O)N4CCOCC4)c3)cc2)C1 (stereo not drawn),"inconclusive: 1.26 µM [inhibitor, full curve, poor fit]"
7,CC(C)(C)c1nnc(NC(=O)CCS(=O)(=O)Cc2ccccc2)s1,"inconclusive: 35.5 µM [inhibitor, single point]"
8,COc1ccc(-c2nn(-c3ccccc3)cc2C(=O)Nc2nccs2)cc1,"inconclusive: 31.6 µM [inhibitor, single point]"
9,CCOc1ccc(NC(=O)CCCN2C(=O)C(c3ccccc3)Oc3cccnc32)cc1 (stereo not drawn),"inconclusive: 3.16 µM [inhibitor, partial curve, poor fit]"
10,C[C@@H](C(=O)NCCc1ccccc1)N1C(=O)N2CCc3c([nH]c4ccccc34)[C@@]2(C)C1=O,active: 10 µM
11,CCCCCC(=O)N1C[C@@H](n2cc(-c3ccc(F)cc3)nn2)[C@H](O)C[C@@H]1c1ccc(Cl)cc1,"inconclusive: 15.8 µM [inhibitor, single point]"
12,Cc1ccc(C(=O)N/C(=C\c2ccc(-c3ccc([N+](=O)[O-])cc3)o2)C(=O)NC2CCS(=O)(=O)C2)cc1 (stereo not drawn),inactive
13,C=C(C)c1cccc(C(C)(C)NC(=O)NCc2ccc(OC)c(OC)c2)c1,"inconclusive: 35.5 µM [inhibitor, single point]"
14,CCn1nc(C(=O)OCC(=O)Nc2nc(-c3ccc(OC)cc3)cs2)c2ccccc2c1=O,inactive
15,O=C1C=C(c2cccc(CO)c2)C[C@@H](c2ccc(F)cc2)C1,inactive
16,O=C(Nc1cccc(S(=O)(=O)N2CCCC2)c1)c1ccc2c(=O)n3c(nc2c1)CCCCC3,"inconclusive: 2 µM [inhibitor, partial curve, poor fit]"
17,Cc1ccc(Nc2ncc(C(=O)NCCCN3CCN(C)CC3)c3ccccc23)cc1Cl,"inconclusive: 35.5 µM [inhibitor, single point]"
18,COc1ccc(C(CNC(=O)c2cc(S(=O)(=O)N3CCN(c4ccccc4)CC3)ccc2Cl)N(C)C)cc1 (stereo not drawn),"inconclusive: 15.8 µM [inhibitor, single point]"
19,Cc1cccc(Cn2c(CNS(=O)(=O)c3ccc(Cl)s3)nc3cccnc32)c1,"inconclusive: 11.2 µM [inhibitor, partial curve, poor fit]"
20,Cc1c(C(=O)OCCOc2ccccc2)[nH]c2c1C(=O)CCC2,"inconclusive: 1 µM [inhibitor, full curve]"
21,Cc1ccc2[nH]c(CSc3nnc(NC(=O)COc4ccccc4F)s3)cc(=O)c2c1,"inconclusive: 6.31 µM [inhibitor, single point]"

row,SMILES,Potency
1,COc1ccc(CCNC(=O)C2CCN(S(=O)(=O)c3ccc(OC)cc3)CC2)cc1,"inconclusive: 11.2 µM [inhibitor, partial curve, poor fit]"
2,Cc1ccc(C)c(OCCOCCn2c(-c3ccc(Br)cc3)nc3ccccc3c2=O)c1C,inactive
3,CN(/N=C\c1ccc(O)c(O)c1)c1nc(-c2ccccc2)cc(-c2ccccc2)n1,"inconclusive: 35.5 µM [inhibitor, single point]"
4,Cc1ccc(-n2ncc(C(=O)NCc3cccs3)c2C2CCN(C(=O)OC(C)(C)C)CC2)cc1C,"inconclusive: 11.2 µM [inhibitor, single point]"
5,CCC(Cn1nnc2ccccc2c1=O)NC(=O)Nc1cc(Cl)ccc1OC (stereo not drawn),"inconclusive: 8.91 µM [inhibitor, partial curve]"
6,CCc1cccc2c(C(=O)COC(=O)/C=C/c3ccc(O)c(OC)c3)c[nH]c12,"inconclusive: 35.5 µM [inhibitor, single point]"
7,O=C(NC(=S)Nc1ccccn1)c1ccc(-c2ccccc2)cc1,"inconclusive: 3.16 µM [inhibitor, full curve, poor fit]"
8,CCOc1cccc2sc(N(CCCN(C)C)C(=O)c3ccc(S(=O)(=O)N4CCc5ccccc5C4)cc3)nc12,"inconclusive: 22.4 µM [inhibitor, partial curve, poor fit]"
9,Cc1ccc(-c2nc3ccc(NS(=O)(=O)c4ccccc4)cc3[nH]2)o1,inactive
10,CCOC(=O)Cn1nc2oc(=O)c(CCN3CCN(c4ccccc4OC)CC3)c(C)c2c1C,inactive
11,COc1ccc(NC2=C(C)C(=O)CC2)cc1,"inconclusive: 1 µM [inhibitor, full curve, poor fit]"
12,CCc1ccc(CN(Cc2ccco2)C(=O)c2cc(-c3ccc(Cl)cc3)on2)cc1,"inconclusive: 2.82 µM [inhibitor, single point]"
13,COc1ccc(C(=O)/C(=C/c2cccs2)c2nc3ccccc3o2)cc1,inactive
14,CCOC(=O)c1c(C)oc2c1c(C=NCCO)c(O)c1ccccc12,"inconclusive: 35.5 µM [inhibitor, single point]"
15,CC(=O)Nc1cccc(-c2cc(-c3c(Cl)cccc3Cl)no2)c1,"inconclusive: 35.5 µM [inhibitor, single point]"
16,Cc1cc2c(cc1S(=O)(=O)Nc1cccc(C(F)(F)F)c1)OCCN2C,active: 3.55 µM
17,CC(C)=CCC/C(C)=C/CNC(=O)C[C@H]1C[C@H](C(=O)N2CCOCC2)[C@@]2(C)c3[nH]c4cc(CCC(=O)N(C)C)ccc4c3CCN2C1=O,"inconclusive: 11.2 µM [inhibitor, partial curve, poor fit]"
18,CCc1nc2oc3ccccc3c(=O)c2cc1C(=O)OC,"inconclusive: 0.112 µM [inhibitor, full curve, poor fit]"
19,CN(CC(=O)Nc1cccc(F)c1)C(=O)/C=C/c1ccc2ccccc2n1,"inconclusive: 17.8 µM [inhibitor, single point]"
20,Cc1cc(C)c(NC(=O)CSc2nc(=O)n(Cc3ccco3)c3c2CCC3)c(C)c1,"inconclusive: 35.5 µM [inhibitor, single point]"
21,COC(=O)c1ccccc1NC(=O)CN1CCCCC1,"inconclusive: 35.5 µM [inhibitor, single point]"

row,SMILES,Potency
1,CS(=O)(=O)c1ncc(N(Cc2ccccc2)Cc2ccco2)c(C(=O)Nc2cccc(C(F)(F)F)c2)n1,inactive
2,Cc1nc(N2CCN(c3ccccn3)CC2)c2c(C)c(C(=O)N3CCN(c4ccc(F)cc4)CC3)sc2n1,"inconclusive: 14.1 µM [inhibitor, partial curve]"
3,COc1ccc(/C=N/OCC(=O)OCC(=O)N(C)c2ccccc2)cc1,"inconclusive: 5.62 µM [inhibitor, single point]"
4,CC(=O)NC1(C)CCC2CC1C(C)=NC2(C)C (stereo not drawn),inactive
5,Cc1ccc(Cl)cc1NC(=O)COC(=O)c1ccccc1O,inactive
6,CNc1ccc(/C=C2\C=Cc3ccccc32)cc1Br,"inconclusive: 0.158 µM [inhibitor, full curve, poor fit]"
7,CC(=O)c1ccc(-c2nnc(CCC(=O)N(C)Cc3c(C)nc4ccccn34)o2)s1,inactive
8,O=C(Nc1ccc(F)cc1)Nc1ccccc1N1CCCCC1,"inconclusive: 14.1 µM [inhibitor, partial curve]"
9,CC(=O)c1c(C)[nH]c(C(=O)OCC(=O)Nc2cc(Cl)ccc2[N+](=O)[O-])c1C,"inconclusive: 2.82 µM [inhibitor, full curve, poor fit]"
10,CCOC(=O)Cc1csc(NC(=O)/C=C/c2ccco2)n1,"inconclusive: 17.8 µM [inhibitor, single point]"
11,CCN(CC)c1ccc2c(C)c(CO)c(=O)oc2c1,"inconclusive: 20 µM [inhibitor, single point]"
12,Cc1ccc(C(=O)N2[C@@H]3CN(C)C(=O)[C@@]2(C)[C@H]2C(=O)N(C)C(=O)[C@@H]32)cc1,"inconclusive: 1.41 µM [inhibitor, partial curve, poor fit]"
13,CCc1ccc(N2CC(C(=O)N3CCN(S(=O)(=O)c4cccc(F)c4)CC3)CC2=O)cc1 (stereo not drawn),inactive
14,CC(=O)Nc1cccc(NC(=O)CSc2ncc(C(=O)Nc3ccccc3)c(=O)n2C)c1,"inconclusive: 12.6 µM [inhibitor, single point]"
15,O=C(Cc1cccs1)N(Cc1ccco1)C1(C(=O)NC2CCCCC2)CCCCC1,inactive
16,O=C(c1nc(-c2ccc(Cl)cc2)n2c1CCCCC2)N1CCN(c2ccc(F)cc2)CC1,"inconclusive: 22.4 µM [inhibitor, single point]"
17,CS(=O)(=O)N(Cc1ccccc1)c1ccc(C(=O)NCC2CCCO2)cc1 (stereo not drawn),"inconclusive: 6.31 µM [inhibitor, single point]"
18,O=C(c1ccccc1)c1ccc(N2CCN(C(=O)c3cccc(F)c3F)CC2)c(F)c1,"inconclusive: 11.2 µM [inhibitor, partial curve]"
19,COc1cc(O)c(C(=O)CC(=O)c2ccncc2)c(OC)c1,inactive
20,O=C(CCl)N1c2ccccc2Oc2ccc3ccccc3c21,"inconclusive: 35.5 µM [inhibitor, single point]"
21,Cc1ccc(NC(=S)Nc2cccc(S(=O)(=O)Nc3c(C)n(C)n(-c4ccccc4)c3=O)c2)cc1,inactive

# — PubChem BioAssay AID588855 (National Center for Advancing Translational Sciences (NCATS), 2011)
